This passage reports cell viability results from the supplement of paper PMC9588766.

Where a name gives a salt, the structure may show the parent alone. ± gives the standard deviation of the averaged measurements. In all, about 2,000 compounds were measured (“cell viability relative to DMSO control (compound alone)”: median about 0.98, lowest 2% from about 0.23 on). Some of the results follow.

For the assay, the system named is PDC-DUC18828. Kind of assay: cell viability relative to DMSO control (compound alone) (fraction); PDC-DUC18828 is a patient-derived cholangiocarcinoma cell line; higher = less growth inhibition. The note with it: 1 µM; 72 h. Here is the method:
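Selleck Bioactive library screen in the patient-derived FGFR2-G3BP2 fusion-positive ICC cell line PDC-DUC18828 (500 cells/well). Each compound was tested at 1 uM alone, in triplicate, for 72 h. Viability was read by CellTiter-Glo and normalised to plate DMSO controls.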
The molecule `CC1(C)CC(=O)c2c(C(F)(F)F)nn(-c3ccc(C(N)=O)c(N[C@H]4CC[C@H](OC(=O)CN)CC4)c3)c2C1` yielded a cell viability of 0.336 ± 0.018.
With `Oc1ccc(Cc2nc3c(Cc4ccccc4)nc(-c4ccc(O)cc4)cn3c2O)cc1` [Coelenterazine], the cell viability came to 0.961 ± 0.034.
In turn, `C[C@H]1COC2(CCN(c3nc(=O)c4cc(C(F)(F)F)cc([N+](=O)[O-])c4s3)CC2)O1` (racemic) [BTZ043 Racemate] yielded a cell viability of 0.941 ± 0.051.
On to `Cc1ccc(C)c(OCCCC(C)(C)C(=O)O)c1` [Gemfibrozil], for which the cell viability was 1.06 ± 0.023.
The molecule `O=C(O)C[C@H](O)C[C@H](O)/C=C/c1c(C2CC2)nc2ccccc2c1-c1ccc(F)cc1` [Pitavastatin Calcium] had a cell viability of 0.869 ± 0.081.
In the case of `O=C(CCCN1CCC(O)(c2ccc(Cl)cc2)CC1)c1ccc(F)cc1` [Haloperidol] it was 1.02 ± 0.072; in that of `COc1cc2c(cc1OC)[C@@H]1Cc3ccc(OC)c(OC)c3CN1CC2` [Rotundine], 0.955 ± 0.041; in that of `C[C@H](NC(=O)CCc1nc2ccccc2c(=O)[nH]1)c1ccccc1`, 1.06 ± 0.025.
As for `NCC(=O)CCC(=O)O` [5-Aminolevulinic acid HCl], the cell viability is 0.962 ± 0.054.
Under `CN1CCC(CNc2ccc3ncc(-c4cccc(OC(F)(F)F)c4)n3n2)CC1` [SGI-1776 free base] stands 0.894 ± 0.056; under `Cc1ccc(Sc2ccccc2N2CCNCC2)c(C)c1`, 1.04 ± 0.021; under `Cc1nn(C)c(COc2ccc(N3CCN(S(=O)(=O)N(C)C)CC3)cc2)c1-c1cccc2c(CCCOc3cccc4ccccc34)c(C(=O)O)n(CCN3CCOCC3)c12`, 0.997 ± 0.033.
Take `CCCC(=O)Nc1ccc(OCC(O)CNC(C)C)c(C(C)=O)c1` (stereo not drawn) [Acebutolol HCl]: the cell viability turned out to be 0.989 ± 0.036.
As to `C[C@@H]1O[C@@H](OC[C@H]2O[C@@H](Oc3c(-c4ccc(O)c(O)c4)oc4cc(O)cc(O)c4c3=O)[C@H](O)[C@@H](O)[C@@H]2O)[C@H](O)[C@H](O)[C@H]1O` [Rutin], the cell viability is 1.05 ± 0.028.
`CN1[C@@H]2CC[C@H]1C[C@@H](OC(c1ccccc1)c1ccccc1)C2` [Benztropine mesylate]: the cell viability turned out to be 0.98 ± 0.027.
`C[C@H](CCC(=O)O)[C@H]1CC[C@H]2[C@@H]3C[C@H](O)[C@@H]4C[C@H](O)CC[C@]4(C)[C@H]3CC[C@]12C` [Hyodeoxycholic acid (HDCA)] yielded a cell viability of 0.966 ± 0.038.
For `N=C(N)c1ccc(N=NNc2ccc(C(=N)N)cc2)cc1` [Diminazene Aceturate], the cell viability came out at 0.98 ± 0.025.
In the case of `NC(=O)Nc1sc(-c2ccc(F)cc2)cc1C(N)=O` it was 0.872 ± 0.027; in that of `CC(C)(C)OC(=O)N[C@H]1CCCCC/C=C\[C@@H]2C[C@@]2(C(=O)NS(=O)(=O)C2CC2)NC(=O)[C@@H]2C[C@@H](OC(=O)N3Cc4cccc(F)c4C3)CN2C1=O` [Danoprevir (ITMN-191)], 1.08 ± 0.024; in that of `N[C@@H](CC(=O)N1CCn2c(nnc2C(F)(F)F)C1)Cc1cc(F)c(F)cc1F` [Sitagliptin phosphate monohydrate], 0.875 ± 0.013.
With `C[C@@H]1O[C@@H](O[C@H]2[C@H](Oc3cc(O)c4c(c3)O[C@H](c3ccc(O)cc3)CC4=O)O[C@H](CO)[C@@H](O)[C@@H]2O)[C@H](O)[C@H](O)[C@H]1O` [Naringin], the cell viability is 1 ± 0.032.
Regarding `COc1nc(C)cnc1NS(=O)(=O)c1cccnc1-c1ccc(-c2nnco2)cc1` [Zibotentan (ZD4054)], the cell viability was found to be 1.1 ± 0.04.
Under `C/C(O)=C(\C#N)C(=O)Nc1ccc(C(F)(F)F)cc1` [Teriflunomide] stands 0.945 ± 0.025.
Take `Nc1nccc2c1ncn2C1C=C(CO)C(O)C1O` (stereo not drawn) [3-Deazaneplanocin A (DZNeP)]: the cell viability amounted to 0.7227 ± 0.004.
With `Cc1nc(N(C)C(=O)Cc2ccc(-c3ccccn3)cc2)sc1S(N)(=O)=O` [Pritelivir (BAY 57-1293)], the cell viability worked out at 0.9 ± 0.088.
`Cn1cc(/C=C/C(=O)c2cccc(F)c2)cc1/C=C/C(=O)NO` registered a cell viability of 1.09 ± 0.018.
For the molecule `C[C@@H](Oc1cc(-c2cnn(C3CCNCC3)c2)cnc1N)c1c(Cl)ccc(F)c1Cl`, the cell viability was determined as 0.835 ± 0.016.
`Cc1cc(Nc2ncc(Cl)c(Nc3ccccc3S(=O)(=O)C(C)C)n2)c(OC(C)C)cc1C1CCNCC1` returned a cell viability of 0.912 ± 0.042.
Regarding `O=C(O)Cc1cc(I)c(Oc2ccc(O)c(I)c2)c(I)c1` [Tiratricol], the cell viability came out at 1.09 ± 0.011.
Consider `CCC(CC)(NC(=O)C(C)C)C(=O)N[C@@H](CCCN=C(N)N)C(=O)NC1(C(=O)NC(c2ccc(F)cc2)c2ccc(F)cc2)CCCC1`, for which the cell viability is 1.07 ± 0.049.
On to `CNCC[C@@H](Oc1ccccc1C)c1ccccc1` [Atomoxetine HCl], for which the cell viability was determined as 1.05 ± 0.05.
The molecule `Cc1ccc(C(=O)C(C)CN2CCCCC2)cc1` (stereo not drawn) [Tolperisone HCl] registered a cell viability of 0.937 ± 0.073.
On to `COc1cc2ncnc(Nc3ccc(F)c(Cl)c3)c2cc1NC(=O)/C=C/CN1CCCCC1`, for which the cell viability was 0.86 ± 0.057.
`CCCCC1C(=O)N(c2ccccc2)N(c2ccccc2)C1=O` [Phenylbutazone] gave a cell viability of 1.06 ± 0.051.
The molecule `Nc1ncnc2c1nc(Br)n2[C@@H]1O[C@@H]2COP(=O)(O)O[C@H]2[C@H]1O` [8-Bromo-cAMP] displayed a cell viability of 0.959 ± 0.03.
As for `CCCc1nc2c(C)cc(-c3nc4ccccc4n3C)cc2n1Cc1ccc(-c2ccccc2C(=O)O)cc1` [Telmisartan], the cell viability is 1.08 ± 0.05.
Consider `COCCCOc1cc(C[C@@H](C[C@H](N)[C@@H](O)C[C@H](C(=O)NCC(C)(C)C(N)=O)C(C)C)C(C)C)ccc1OC` [Aliskiren Hemifumarate], for which the cell viability was found to be 0.958 ± 0.024.
`Cc1ccc(C(=O)N(CCCN)[C@@H](c2nc3cc(Cl)ccc3c(=O)n2Cc2ccccc2)C(C)C)cc1`: the cell viability is 0.353 ± 0.023.
In turn, `CC1=CC(=O)c2ccccc2C1=O` [Menadione] yielded a cell viability of 0.996 ± 0.027.
In the case of `CC(=O)/N=c1/sc(S(N)(=O)=O)nn1C` [Methazolamide], the cell viability was 1.06 ± 0.018.
Under `CC(=O)NC[C@H]1CN(c2ccc(N3CCOCC3)c(F)c2)C(=O)O1` [Linezolid] stands 1.08 ± 0.068; under `Cc1nccn1CC1CCc2c(c3ccccc3n2C)C1=O` (stereo not drawn) [Ondansetron HCl], 1.02 ± 0.054; under `COc1ccc2c(c1)c(CC(=O)OCC(=O)O)c(C)n2C(=O)c1ccc(Cl)cc1` [Acemetacin], 1.03 ± 0.046.
`COc1ccc2cc3[n+](cc2c1OC)CCc1cc2c(cc1-3)OCO2` [Berberine HCl] displayed a cell viability of 0.89 ± 0.015.
In the case of `COc1cc2c(cc1Cc1cccc(Cl)c1F)c(=O)c(C(=O)O)cn2[C@H](CO)C(C)C` [Elvitegravir (GS-9137, JTK-303)] it was 1.07 ± 0.04; in that of `Cn1sc(=O)n(Cc2ccccc2)c1=O`, 0.888 ± 0.02; in that of `COc1cc(-c2cc(-c3ccc(N4CCNCC4)cc3)cnc2C)cc(OC)c1OC`, 0.946 ± 0.048.
In turn, `Nc1ccccc1NC(=O)c1ccc(CNc2nccc(-c3cccnc3)n2)cc1` [Mocetinostat (MGCD0103)] returned a cell viability of 0.745 ± 0.016.
For `Cc1ccc(S(=O)(=O)/C=C/C#N)cc1`, the cell viability stood at 0.754 ± 0.039.
Turning to `CC(C)(C)OC(=O)Nc1ccc(-c2cc(C(=O)NCCCCCCC(=O)NO)no2)cc1`, the cell viability was determined as 0.566 ± 0.022.
The molecule `CC1=C(C(=O)O)N2C(=O)[C@@H](NC(=O)[C@H](N)c3ccccc3)[C@H]2SC1` [Cephalexin] displayed a cell viability of 1.04 ± 0.028.
The molecule `CC[C@H](C)C(=O)O[C@H]1C[C@H](O)C=C2C=C[C@H](C)[C@H](CC[C@@H](O)C[C@@H](O)CC(=O)O)[C@H]21` [Pravastatin sodium] showed a cell viability of 0.956 ± 0.022.
In the case of `CO[C@H]1C[C@@H]2CC[C@@H](C)[C@@](O)(O2)C(=O)C(=O)N2CCCC[C@H]2C(=O)O[C@H]([C@H](C)C[C@@H]2CC[C@H](n3cnnn3)[C@H](OC)C2)CC(=O)[C@H](C)/C=C(\C)[C@@H](O)[C@@H](OC)C(=O)[C@H](C)C[C@H](C)/C=C/C=C/C=C/1C` [Zotarolimus(ABT-578)] it was 0.5763 ± 0.0053; in that of `CCCC(=O)Nc1cccc(NC(=O)c2ccccc2Br)c1`, 1.017 ± 0.01.
Under `COc1cc(-c2cc(-c3cccc(O)c3)cnc2N)cc(OC)c1OC` stands 0.954 ± 0.035.
Take `O=C(O)c1ccc(O)c2ncccc12`: the cell viability amounted to 1.08 ± 0.029.
The molecule `COc1cc2ncnc(Nc3ccc(O)c(Br)c3)c2cc1OC` yielded a cell viability of 0.916 ± 0.058.
Regarding `Nc1nnc(-c2cccc(Cl)c2Cl)c(N)n1` [Lamotrigine], the cell viability was 0.9112 ± 0.0083.
As for `Cc1cc(Nc2cc(CN3CCOCC3)c3nc(C)c(Cc4ccc(Cl)cc4F)n3n2)n[nH]1`, the cell viability stood at 0.383 ± 0.0096.
In turn, `CCOC(=O)N[C@@H]1CC[C@@H]2[C@@H](C1)C[C@H]1C(=O)O[C@H](C)[C@H]1[C@H]2/C=C/c1ccc(-c2cccc(F)c2)cn1` [Vorapaxar] registered a cell viability of 1.03 ± 0.022.
`CC[C@@]1(O)C(=O)OCc2c1cc1n(c2=O)Cc2cc3c(CN(C)C)c(O)ccc3nc2-1` [Topotecan HCl] registered a cell viability of 0.0869 ± 0.0071.
The molecule `O=C(NC1CC1)c1cc(-c2cccs2)on1` [Isoxazole 9 (ISX-9)] displayed a cell viability of 0.991 ± 0.015.
The molecule `Oc1cc(O)cc(/C=C/c2ccc(O)c(O)c2)c1` [Piceatannol] showed a cell viability of 0.896 ± 0.042.
`Nc1nc(=O)[nH]cc1F` [Flucytosine] yielded a cell viability of 0.911 ± 0.027.
In the case of `CN1CCN(c2ccc(Nc3cc(-c4cccc(-n5ccc6cc(C7CC7)cc(F)c6c5=O)c4CO)cn(C)c3=O)nc2)CC1`, the cell viability amounted to 0.981 ± 0.046.
On to `CN(C)C(=O)c1cc2cnc(Nc3ccc(N4CCNCC4)cn3)nc2n1C1CCCC1`, for which the cell viability was 1 ± 0.041.
`C=C1[C@H](CO)[C@@H](O)C[C@@H]1n1cnc2c(=O)[nH]c(N)nc21` [Entecavir Hydrate] showed a cell viability of 0.947 ± 0.078.
Consider `CC(=O)O[C@]1(C(C)=O)CC[C@H]2[C@@H]3C=C(C)C4=CC(=O)CC[C@]4(C)[C@H]3CC[C@@]21C` [Megestrol Acetate], for which the cell viability was determined as 0.913 ± 0.055.
For `CN1CCC[C@@H]1Cc1c[nH]c2ccc(CCS(=O)(=O)c3ccccc3)cc12` [Eletriptan HBr], the cell viability turned out to be 0.962 ± 0.045.
`COc1ccccc1Oc1c(NS(=O)(=O)c2ccc(C(C)(C)C)cc2)nc(-c2ncccn2)nc1OCCO` [Bosentan Hydrate] came in with a cell viability of 0.99 ± 0.059.
With `COc1ccccc1Oc1c(NS(=O)(=O)c2ccc(C(C)(C)C)cc2)nc(-c2ncccn2)nc1OCCO` [Bosentan], the cell viability was determined as 1.01 ± 0.016.
`COc1cc2c(Oc3ccc(NC(=O)C4(C(=O)Nc5ccc(F)cc5)CC4)cc3F)ccnc2cc1OCCCN1CCOCC1` yielded a cell viability of 0.672 ± 0.032.
`C[S+]([O-])c1ccc(-c2nc(-c3ccc(F)cc3)c(-c3ccncc3)[nH]2)cc1` (stereo not drawn) displayed a cell viability of 0.995 ± 0.041.
